For this experiment, the target named is Genome polyprotein (dengue virus type 2) (UniProt P29990).
Where [1] appears, read: Thailand/16681/1984, Concentration 25.0 uM, Number of replicates 1.0.

Hit rate of the full screen: of about 2,000 compounds, about 110 (5.5%) showed an effect of 50% or more. The list shows a part of the results.

For `O=Cc1ccc(N2CCC(C(=O)Nc3cc(C(F)(F)F)ccn3)CC2)cc1`, the inhibition under setting [1] was 10.8%. Consider `N[C@@H]1CCCC[C@H]1C(=O)Nc1cccc2cccnc12`, for which the inhibition is -8.7% (Thailand/16681/1984, Concentration 49.95 uM, Number of replicates 2.0, Standard deviation 3.2838754106489776 %) and -7.2% (Thailand/16681/1984, Concentration 99.9 uM, Number of replicates 2.0, Standard deviation 3.148144351005342 %). Turning to `COc1ccc([C@@H]2CCCN2C(=O)C2CCN(c3ccc(C=O)cc3)CC2)cc1`, under setting [1], the inhibition is 14.1%. For the compound `O=Cc1ccc(N2CCC(C(=O)Nc3cnc4sccn4c3=O)CC2)cc1`, the inhibition under setting [1] amounted to 19.7%. Consider `Cc1cc(CO)c2cccc(NC(=O)C(=O)c3ccco3)c2n1`, for which the inhibition stood at 6.42% (Thailand/16681/1984, Concentration 49.95 uM, Number of replicates 2.0, Standard deviation 1.9477646790136023 %) and 10.7% (Thailand/16681/1984, Concentration 99.9 uM, Number of replicates 2.0, Standard deviation 0.958680982773286 %). Regarding `Cc1cnccc1NC(=O)c1ccn(CC(C)C)n1`, the inhibition is, setting by setting: (Thailand/16681/1984, Concentration 49.5 uM, Number of replicates 2.0, Standard deviation 0.033579405732993534 %) -2.94%; (Thailand/16681/1984, Concentration 99.01 uM, Number of replicates 2.0, Standard deviation 0.865071652118832 %) -3.19%; (Thailand/16681/1984, Concentration 198.0 uM, Number of replicates 2.0, Standard deviation 1.2994729819870372 %) -3.3%. Turning to `Cc1cnccc1NC(=O)c1cccn(C[C@@H]2CCNC2)c1=O`, the inhibition by setting is: (Thailand/16681/1984, Concentration 49.5 uM, Number of replicates 2.0, Standard deviation 0.09863272923477039 %) 4.57%; (Thailand/16681/1984, Concentration 99.01 uM, Number of replicates 2.0, Standard deviation 0.0802068014153837 %) 8.01%; (Thailand/16681/1984, Concentration 198.0 uM, Number of replicates 2.0, Standard deviation 1.070868475663948 %) 14.4%. As for `O=Cc1ccc(N2CCC(C(=O)NCc3ccc(I)cc3)CC2)cc1`, the inhibition under setting [1] is 13.4%. Consider `O=C(Nc1cccc(O)c1)c1cccc(OCc2c(Cl)cccc2Cl)c1`, for which the inhibition stood at 6.58% (Thailand/16681/1984, Concentration 49.5 uM, Number of replicates 2.0, Standard deviation 2.2599777431890864 %); 8.41% (Thailand/16681/1984, Concentration 99.01 uM, Number of replicates 2.0, Standard deviation 0.8121141369648937 %); 11.9% (Thailand/16681/1984, Concentration 198.0 uM, Number of replicates 2.0, Standard deviation 0.4931997238761773 %). On to `O=Cc1ccc(N2CCC(C(=O)NCCSc3ccc(Cl)cc3)CC2)cc1`, for which the inhibition under setting [1] was determined as 6.43%. For `COc1cc(COc2cc(C)nc3ncnn23)nc(N2CCNCC2)n1`, the inhibition was 2.91% (Thailand/16681/1984, Concentration 49.5 uM, Number of replicates 2.0, Standard deviation 19.015038260433418 %); -6.71% (Thailand/16681/1984, Concentration 99.01 uM, Number of replicates 2.0, Standard deviation 2.9676776148278794 %); -3.12% (Thailand/16681/1984, Concentration 198.0 uM, Number of replicates 2.0, Standard deviation 6.9135926030191905 %). As to `C[C@H](NC(=O)C1CCN(c2ccc(C=O)cc2)CC1)c1cc(F)ccc1F`, the inhibition under setting [1] was 11%. `NC(=O)c1sccc1NS(=O)(=O)c1ccc(Oc2ccccc2)cc1`: the inhibition reads like this: (Thailand/16681/1984, Concentration 49.5 uM, Number of replicates 2.0, Standard deviation 0.12353190722324828 %) 3.89%; (Thailand/16681/1984, Concentration 99.01 uM, Number of replicates 2.0, Standard deviation 0.11961073302518874 %) 8.6%; (Thailand/16681/1984, Concentration 198.0 uM, Number of replicates 2.0, Standard deviation 0.07843359920483335 %) 16.6%. Take `O=C(O)c1cccc(NC(=O)c2cccnc2)c1`: the inhibition (Thailand/16681/1984, Concentration 49.5 uM, Number of replicates 2.0, Standard deviation 0.5754076787322825 %) was -0.074%; the inhibition (Thailand/16681/1984, Concentration 99.01 uM, Number of replicates 2.0, Standard deviation 0.4240348488616172 %) turned out to be 0.945%; the inhibition (Thailand/16681/1984, Concentration 198.0 uM, Number of replicates 2.0, Standard deviation 0.6389174792744691 %) amounted to 2.26%. Take `COc1cc2nc(Cl)nc(NC(=O)C3CCN(c4ccc(C=O)cc4)CC3)c2cc1OC`: under setting [1], the inhibition worked out at 14.4%. In the case of `Cc1ccc(CN(C(=O)C2CCN(c3ccc(C=O)cc3)CC2)C2CC2)s1`, the inhibition under setting [1] turned out to be 14.9%.

Consider `CCCCCCCCCCNC(=O)C1CCN(c2ccc(C=O)cc2)CC1`, for which the inhibition under setting [1] worked out at 13.4%. In the case of `NCc1cccc(NC(=O)[C@@H](NC(=O)OCc2ccccc2)c2ccc(OCc3ccccc3)cc2)c1`, the inhibition (Thailand/16681/1984, Concentration 49.5 uM, Number of replicates 2.0, Standard deviation 0.05193031216203084 %) was determined as 99.8%; the inhibition (Thailand/16681/1984, Concentration 99.01 uM, Number of replicates 2.0, Standard deviation 0.07343936624368645 %) is 99.8%; the inhibition (Thailand/16681/1984, Concentration 198.0 uM, Number of replicates 2.0, Standard deviation 0.025182910572653226 %) came to 99.6%.

Turning to `CN1[C@@H]2CCC[C@H]1C[C@@H](NC(=O)C1CCN(c3ccc(C=O)cc3)CC1)C2`, under setting [1], the inhibition is 13.1%. `O=Cc1ccc(N2CCC(C(=O)NCC(c3ccccc3)c3ccccc3)CC2)cc1`: the inhibition under setting [1] was -2.96%. Consider `Cn1cc(NC(=O)c2ccccc2C(F)(F)F)c(-c2cnn(C)n2)n1`, for which the inhibition was -2.97% (Thailand/16681/1984, Concentration 49.5 uM, Number of replicates 2.0, Standard deviation 0.32036291597833877 %); -3.46% (Thailand/16681/1984, Concentration 99.01 uM, Number of replicates 2.0, Standard deviation 1.175972600606475 %); -3.2% (Thailand/16681/1984, Concentration 198.0 uM, Number of replicates 2.0, Standard deviation 1.0582279614459547 %). In the case of `Cc1cc(Cl)c2cccc(NC(=O)CCN)c2n1`, the inhibition is 99.2% (Thailand/16681/1984, Concentration 49.95 uM, Number of replicates 2.0, Standard deviation 0.0008200090846279543 %) and 98.9% (Thailand/16681/1984, Concentration 99.9 uM, Number of replicates 2.0, Standard deviation 0.04112992935002318 %). Take `NCCOc1ccc2c(c1)B(O)OC2`: the inhibition runs as follows: (Thailand/16681/1984, Concentration 49.5 uM, Number of replicates 2.0, Standard deviation 1.4321505867497555 %) 3.29%; (Thailand/16681/1984, Concentration 99.01 uM, Number of replicates 2.0, Standard deviation 3.200083598299257 %) 3.45%; (Thailand/16681/1984, Concentration 198.0 uM, Number of replicates 2.0, Standard deviation 3.5663203243086112 %) 3.25%.
